A lower IC50 marks a more sensitive line; fits outside the tested doses are given as limits. The AUC spans the tested range (256-fold, ending at the top dose) of the same fit; values near 1 show little effect. Where the top dose is marked as inferred, it was derived from the fitted curves, not read from the paper.
Compound: CCOc1cc2ncc(C#N)c(Nc3ccc(F)c(Cl)c3)c2cc1NC(=O)/C=C/CN(C)C [EKB-569]
Experiment: Viability of human cancer cell lines after 72 h of drug (GDSC screen)
Settings: top dose inferred
Protocol: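 Human cancer cell lines in 384-well plates, medium with 10% serum, drug for 72 h over a 256-fold dose range (nine 2-fold or five 4-fold steps up to the top dose). Adherent lines were fixed and stained with the nucleic acid dye Syto60, suspension lines read with resazurin; signal relative to control wells, capped at 0 and 100%. One two-parameter sigmoid per drug and line, fitted in a mixed model over all curves with the slope shared within a line.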

| Cell Line | AUC | IC50 [nM] |
| --- | --- | --- |
| Calu-3 (lung adenocarcinoma, adherent, top dose 2.5 µM) | 0.684 | 587 |
| Calu-6 (lung adenocarcinoma, adherent, top dose 20 µM) | 0.725 | 6060 |
| Caov-3 (ovary, adherent, top dose 2.5 µM) | 0.93 | > 2500 |
| Caov-4 (ovary, adherent, top dose 2.5 µM) | 0.967 | > 2500 |
| Capan-2 (pancreas, adherent, top dose 2.5 µM) | 0.943 | > 2500 |
| ChaGo-K-1 (non-small cell lung carcinoma, adherent, top dose 2.5 µM) | 0.964 | > 2500 |
| D-247MG (glioma, adherent, top dose 2.5 µM) | 0.978 | > 2500 |
| D-263MG (glioma, adherent, top dose 2.5 µM) | 0.983 | > 2500 |
| D-283MED (medulloblastoma, adherent, top dose 2.5 µM) | 0.989 | > 2500 |
| D-336MG (glioma, adherent, top dose 2.5 µM) | 0.88 | > 2500 |
| D-392MG (glioma, adherent, top dose 2.5 µM) | 0.952 | > 2500 |
| D-423MG (glioma, adherent, top dose 2.5 µM) | 0.878 | > 2500 |
| D-502MG (glioma, adherent, top dose 2.5 µM) | 0.806 | 2260 |
| D-542MG (glioma, adherent, top dose 2.5 µM) | 0.984 | > 2500 |
| D-566MG (glioma, adherent, top dose 2.5 µM) | 0.949 | > 2500 |
| DAN-G (pancreas, adherent, top dose 2.5 µM) | 0.972 | > 2500 |
| DB (B-cell lymphoma, suspension, top dose 2.5 µM) | 0.848 | 2240 |
| DBTRG-05MG (glioma, adherent, top dose 2.5 µM) | 0.865 | > 2500 |
| DEL (lymphoid neoplasm, suspension, top dose 2.5 µM) | 0.831 | 1150 |
| DG-75 (Burkitt lymphoma, suspension, top dose 2.5 µM) | 0.971 | > 2500 |
| DJM-1 (skin, adherent, top dose 2.5 µM) | 0.976 | > 2500 |

| Cell Line | AUC | IC50 [nM] |
| --- | --- | --- |
| DK-MG (glioma, adherent, top dose 2.5 µM) | 0.669 | 584 |
| DMS-53 (small cell lung carcinoma, adherent, top dose 2.5 µM) | 0.987 | > 2500 |
| DMS-79 (small cell lung carcinoma, suspension, top dose 2.5 µM) | 0.987 | > 2500 |
| DMS-114 (small cell lung carcinoma, adherent, top dose 2.5 µM) | 0.972 | > 2500 |
| DMS-273 (small cell lung carcinoma, adherent, top dose 2.5 µM) | 0.959 | > 2500 |
| DND-41 (T-cell leukaemia, suspension, top dose 2.5 µM) | 0.904 | > 2500 |
| DOK (head and neck, adherent, top dose 2.5 µM) | 0.794 | 1890 |
| DOV13 (ovary, adherent, top dose 2.5 µM) | 0.967 | > 2500 |
| DSH1 (bladder, adherent, top dose 2.5 µM) | 0.431 | 102 |
| DU-145 (prostate, adherent, top dose 2.5 µM) | 0.973 | > 2500 |
| DU-4475 (breast, suspension, top dose 2.5 µM) | 0.944 | > 2500 |
| Daoy (medulloblastoma, adherent, top dose 2.5 µM) | 0.791 | 1010 |
| Daudi (Burkitt lymphoma, suspension, top dose 2.5 µM) | 0.803 | 1060 |
| Detroit562 (head and neck, adherent, top dose 2.5 µM) | 0.961 | > 2500 |
| DoTc2-4510 (cervix, adherent, top dose 2.5 µM) | 0.784 | 1000 |
| EB2 (Burkitt lymphoma, suspension, top dose 2.5 µM) | 0.576 | 246 |
| EB-3 (Burkitt lymphoma, suspension, top dose 2.5 µM) | 0.862 | > 2500 |
| EBC-1 (lung squamous cell carcinoma, adherent, top dose 2.5 µM) | 0.955 | > 2500 |
| EC-GI-10 (oesophagus, adherent, top dose 2.5 µM) | 0.987 | > 2500 |
| ECC10 (stomach, suspension, top dose 2.5 µM) | 0.829 | 1650 |
| EFM-19 (breast, adherent, top dose 2.5 µM) | 0.972 | > 2500 |

| Cell Line | AUC | IC50 [nM] |
| --- | --- | --- |
| EFM-192A (breast, adherent, top dose 2.5 µM) | 0.966 | > 2500 |
| EFO-21 (ovary, adherent, top dose 2.5 µM) | 0.773 | 1430 |
| EFO-27 (ovary, adherent, top dose 2.5 µM) | 0.829 | 2120 |
| EGI-1 (biliary tract, adherent, top dose 2.5 µM) | 0.9 | > 2500 |
| EJM (lymphoid neoplasm, semi-adherent, top dose 2.5 µM) | 0.923 | > 2500 |
| EKVX (lung adenocarcinoma, adherent, top dose 20 µM) | 0.732 | 12600 |
| EM-2 (chronic myeloid leukaemia, suspension, top dose 2.5 µM) | 0.837 | 2000 |
| EMC-BAC-1 (lung adenocarcinoma, adherent, top dose 2.5 µM) | 0.556 | 227 |
| EMC-BAC-2 (lung adenocarcinoma, adherent, top dose 2.5 µM) | 0.719 | 741 |
| EN (endometrium, adherent, top dose 2.5 µM) | 0.971 | > 2500 |
| EPLC-272H (lung squamous cell carcinoma, adherent, top dose 2.5 µM) | 0.726 | 752 |
| ES1 (Ewing sarcoma, adherent, top dose 2.5 µM) | 0.98 | > 2500 |
| ES3 (Ewing sarcoma, adherent, top dose 2.5 µM) | 0.717 | 665 |
| ES4 (Ewing sarcoma, adherent, top dose 2.5 µM) | 0.59 | 287 |
| ES5 (Ewing sarcoma, adherent, top dose 2.5 µM) | 0.848 | 2300 |
| ES6 (Ewing sarcoma, adherent, top dose 2.5 µM) | 0.937 | > 2500 |
| ES7 (Ewing sarcoma, adherent, top dose 2.5 µM) | 0.629 | 358 |
| ES8 (Ewing sarcoma, adherent, top dose 2.5 µM) | 0.912 | > 2500 |
| ES-2 (ovary, adherent, top dose 2.5 µM) | 0.963 | > 2500 |
| ESO26 (oesophagus, adherent, top dose 2.5 µM) | 0.437 | 106 |
| ESO51 (oesophagus, semi-adherent, top dose 2.5 µM) | 0.968 | > 2500 |

| Cell Line | AUC | IC50 [nM] |
| --- | --- | --- |
| ESS-1 (endometrium, adherent, top dose 2.5 µM) | 0.968 | > 2500 |
| ETK-1 (biliary tract, adherent, top dose 2.5 µM) | 0.834 | 1940 |
| EVSA-T (breast, adherent, top dose 2.5 µM) | 0.988 | > 2500 |
| EW-1 (Ewing sarcoma, semi-adherent, top dose 2.5 µM) | 0.751 | 762 |
| EW-3 (Ewing sarcoma, adherent, top dose 2.5 µM) | 0.887 | > 2500 |
| EW-7 (Ewing sarcoma, semi-adherent, top dose 2.5 µM) | 0.892 | 2320 |
| EW-11 (Ewing sarcoma, adherent, top dose 2.5 µM) | 0.855 | > 2500 |
| EW-13 (Ewing sarcoma, suspension, top dose 2.5 µM) | 0.78 | 1140 |
| EW-16 (Ewing sarcoma, adherent, top dose 2.5 µM) | 0.868 | 2460 |
| EW-18 (Ewing sarcoma, suspension, top dose 2.5 µM) | 0.827 | 1660 |
| EW-24 (Ewing sarcoma, semi-adherent, top dose 2.5 µM) | 0.53 | 187 |
| EoL-1-cell (haematopoietic neoplasm, suspension, top dose 2.5 µM) | 0.895 | 2420 |
| FADU (head and neck, adherent, top dose 2.5 µM) | 0.892 | > 2500 |
| FLO-1 (oesophagus, adherent, top dose 2.5 µM) | 0.835 | > 2500 |
| FTC-133 (thyroid, adherent, top dose 2.5 µM) | 0.986 | > 2500 |
| FU97 (stomach, adherent, top dose 2.5 µM) | 0.958 | > 2500 |
| FU-OV-1 (ovary, adherent, top dose 2.5 µM) | 0.852 | > 2500 |
| Farage (B-cell lymphoma, suspension, top dose 2.5 µM) | 0.763 | 750 |
